Article PMC4336329 (PLoS ONE, 2015)
Out of some 310,000 compounds screened, about 14,000 (4.5%) showed an effect of 50% or more. Effects have a minus sign here. The list shows a part of the results.

The compounds below were run against human ether-à-go-go-related gene (hERG) potassium channel (human, UniProt Q12809) (assay: primary screen, population patch clamp on CHO cells stably expressing hERG).
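Also: peak tail current of the secondary pulse compared with the same well before compound.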

Chain of human ether-à-go-go-related gene (hERG) potassium channel (Q12809 whole entry, looked up): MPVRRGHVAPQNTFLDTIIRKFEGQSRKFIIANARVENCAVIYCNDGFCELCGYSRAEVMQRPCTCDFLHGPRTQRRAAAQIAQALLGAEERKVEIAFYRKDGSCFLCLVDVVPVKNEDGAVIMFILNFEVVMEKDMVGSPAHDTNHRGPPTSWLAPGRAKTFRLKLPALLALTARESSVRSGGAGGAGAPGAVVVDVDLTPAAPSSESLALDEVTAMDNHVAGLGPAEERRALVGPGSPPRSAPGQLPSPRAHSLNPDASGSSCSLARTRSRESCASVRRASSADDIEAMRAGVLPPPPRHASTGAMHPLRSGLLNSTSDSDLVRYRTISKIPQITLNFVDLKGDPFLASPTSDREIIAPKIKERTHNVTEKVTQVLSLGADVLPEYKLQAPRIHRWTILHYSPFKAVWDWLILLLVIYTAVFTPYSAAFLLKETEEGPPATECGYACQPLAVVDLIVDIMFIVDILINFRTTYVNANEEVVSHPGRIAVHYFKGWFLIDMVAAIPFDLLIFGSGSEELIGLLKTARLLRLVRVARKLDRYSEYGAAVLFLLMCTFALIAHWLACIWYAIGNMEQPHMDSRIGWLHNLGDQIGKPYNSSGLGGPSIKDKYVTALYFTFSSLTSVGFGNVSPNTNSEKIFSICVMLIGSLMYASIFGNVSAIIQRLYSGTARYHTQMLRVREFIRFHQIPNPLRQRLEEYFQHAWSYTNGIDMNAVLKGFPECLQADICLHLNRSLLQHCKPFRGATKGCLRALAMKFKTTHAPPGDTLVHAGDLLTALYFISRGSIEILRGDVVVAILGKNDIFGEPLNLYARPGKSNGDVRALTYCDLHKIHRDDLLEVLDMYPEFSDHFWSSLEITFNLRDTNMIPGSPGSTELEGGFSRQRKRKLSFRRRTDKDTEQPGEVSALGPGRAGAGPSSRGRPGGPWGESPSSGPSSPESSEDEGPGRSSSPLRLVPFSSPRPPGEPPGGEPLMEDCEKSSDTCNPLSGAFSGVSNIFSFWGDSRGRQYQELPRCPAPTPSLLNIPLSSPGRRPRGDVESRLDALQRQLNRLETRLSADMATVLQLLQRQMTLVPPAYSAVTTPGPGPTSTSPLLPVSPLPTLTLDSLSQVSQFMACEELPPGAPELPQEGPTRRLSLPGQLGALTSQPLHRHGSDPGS

In order of falling “hERG current change (%, negative = inhibition) at 10uM” value:
1. O=C(O)c1cccnc1SC1CC(=O)N(c2ccccc2)C1=O (centres unmarked)  32.4%
2. COc1cc(-c2nc3cnccn3c2Nc2ccc(C(C)C)cc2)ccc1O  25%
3. Cc1nn(S(=O)(=O)c2ccccc2)c(C)c1S(=O)(=O)N1CCOCC1  20.1%
4. CC(C)c1ccc(C2(O)C(=O)Nc3cc(Br)ccc32)c(O)c1 (centres unmarked)  20.1%
5. O=C(NNC(=O)c1ccncc1)c1ccccc1  18.8%
6. NC(=O)NC(=O)C(Nc1ccc(N2CCCCC2)cc1)c1ccccc1 (centres unmarked)  16.2%
7. CCc1ccc(N2CCN(S(=O)(=O)CC34CCC(CC3=O)C4(C)C)CC2)cc1 (centres unmarked)  16.2%
8. CCC12CN3CCN(CC(C3)/C1=N\NC(=O)c1ccc(F)cc1)C2  13.4%
9. CC(C)c1ccc(Cc2nnc(NCCCO)[nH]c2=O)cc1  12.8%
10. CCCCOc1c(C(=O)Nc2ccccc2)nnn1-c1ccccc1  10.7%
11. COc1ccc(NC(=O)CN(C)C(=O)Cc2ccc(S(=O)(=O)N3CCOCC3)s2)cc1  8.92%
12. Nc1ncc2c(n1)-c1ccccc1CC2  8.55%
13. O=C(CN1CC=C(c2ccccc2)CC1)NC(=O)NCc1ccccc1  3.33%
14. CCC(C)C(=O)Nc1nc(C)c(-c2csc(Nc3ccccc3OC)n2)s1 (centres unmarked)  2.7%
15. Cc1cc(C)c(NC(=O)CNC(=O)COC(=O)/C=C/c2cccs2)c(C)c1  0.852%
16. CN(CCC#N)S(=O)(=O)c1ccc2c(c1)c(=O)n(C)c(=O)n2C  0.68%
17. c1cnc(NC2CCCCCC2)nc1  0.195%
18. COc1cccc(CN2CCNC(=O)C2CC(=O)N(C)CC2CCOCC2)c1OC (centres unmarked)  -0.0809%
19. O=C(NCCCN1CCCCC1)c1ccc(CS(=O)c2ccc(F)cc2)o1 (centres unmarked)  -0.35%
20. COc1ccc(OC)c(N(CC(=O)N2CCC(C)CC2)S(=O)(=O)c2ccc(OC)c(OC)c2)c1  -0.525%
21. CC(C)C[C@H](NC(=O)c1nc[nH]c1C(=O)NCC(=O)OC(C)(C)C)C(=O)OC(C)(C)C  -0.984%
22. COc1ccccc1NS(=O)(=O)c1ccc(OC)c(OC)c1  -2.77%
23. Cc1ccc(-c2cc[n+](Cc3ccccc3)cc2)cc1.[Cl-]  -5.47%
24. CC1Cc2ccccc2N1C(=O)CSc1ccccc1 (centres unmarked)  -5.94%
25. O=S(=O)(c1ccc(Br)s1)n1cccn1  -6.66%
26. N=C1C(c2nc3ccccc3s2)=C(O)CN1Cc1ccccc1  -8.09%
27. Cc1c(NC(=O)CCC2CCCCC2)cc(C(=O)N2CCOCC2)cc1[N+](=O)[O-]  -10.2%
28. COc1ccccc1CNC(=O)c1nn(-c2ccc(C)cc2)c(=O)c2c1c1ccccc1n2C  -12.5%
29. COc1ccc(-n2cnc3c(sc4nccc(N(C)C)c43)c2=O)cc1  -13.8%
30. Cc1[nH]c2ccccc2c1C(=O)C(=O)N1CCN(c2ccccc2)CC1  -14%
31. CN(Cc1ccccc1)S(=O)(=O)c1csc(C(N)=O)c1  -17.8%
32. COc1cccc(C2C(C(=O)Nc3ccccc3)=C(C)N=c3s/c(=C/c4ccc(OCC(=O)O)cc4)c(=O)n32)c1 (centres unmarked)  -18.4%
33. CCOc1ccc(-c2nc(CN(Cc3ccccc3)C[C@@H]3CCC(=O)N3)c(C)o2)cc1  -22.2%
34. O=C(NCc1cccc(F)c1)c1cccc(OC2CCN(C(=O)C3CC3)CC2)c1  -23.2%
35. C=CCNC(=O)C1CCN(C(=O)c2ccc(-c3ccccc3)cc2)CC1  -24.8%
36. CCC1CCCCN1CCCNC(=O)c1ccc2c(c1)N(Cc1ccc(F)cc1)C(=O)c1ccccc1S2=O (centres unmarked)  -30.2%
37. O=C(NC1CCN(Cc2ccccc2)CC1)c1ccc2c(c1)OCCCO2  -37.1%
38. CCN(CC(=O)NCc1cccs1)C(=O)c1cccc(S(=O)(=O)NCc2ccccc2)c1  -48.7%
39. CC(CN1CCC(n2nccc2NC(=O)CCCc2ccccc2)CC1)c1ccccc1 (centres unmarked)  -51.9%
40. CN(C)c1ccc(CNCCC(Cc2ccccc2)c2ccco2)cc1 (centres unmarked)  -52.3%
41. Cc1cccn2c(=O)c(C=O)c(N3CCN(c4ccccc4)CC3)nc12  -55.4%
42. CC(C)CCN1CCN(Cc2cnc(-c3ccccc3)s2)CC1CCO (centres unmarked)  -56.6%
43. Cc1cccc(Cn2c(N3CCCCC3C)nc3c2c(=O)[nH]c(=O)n3C)c1 (centres unmarked)  -57%
44. CN(C)C(CNC(=O)CCc1nc2cc(Cl)ccc2n(Cc2ccccc2)c1=O)c1ccccc1 (centres unmarked)  -81.1%
